PubChem BioAssay AID588579 (National Center for Advancing Translational Sciences (NCATS), 2011)
Values joined by “and” are separate entries in the source; they are usually repeats but may differ in a detail not shown here. Equal entries are not always repeated. Hit rate of the full screen: of about 400,000 compounds, about 2,200 (0.55%) were called active. Another 1% or so got no clear call; they are omitted. Calls come from the whole dose curve; as a rule, active = well fitted inhibition curve with a large enough effect; inconclusive = small, poorly fitted or top-dose-only effect, or another doubt; inactive = no such curve, though single readings can be large or run the other way. The list shows a part of the results, in another mix than the full data. Some structures have more than one record in an assay (separate samples or runs), and their calls can disagree.

What follows are molecules tested against DNA polymerase kappa (Homo sapiens) (UniProt Q9UBT6) (assay: qHTS for Inhibitors of Polymerase Kappa). Conditions: purified Pol kappa, fluorescent DNA synthesis assay, 10 min; series mostly up to 107 µM; activity, negative = inhibition: at the top concentration.
Sequence of UniProt Q9UBT6 (Q9UBT6 whole entry, looked up): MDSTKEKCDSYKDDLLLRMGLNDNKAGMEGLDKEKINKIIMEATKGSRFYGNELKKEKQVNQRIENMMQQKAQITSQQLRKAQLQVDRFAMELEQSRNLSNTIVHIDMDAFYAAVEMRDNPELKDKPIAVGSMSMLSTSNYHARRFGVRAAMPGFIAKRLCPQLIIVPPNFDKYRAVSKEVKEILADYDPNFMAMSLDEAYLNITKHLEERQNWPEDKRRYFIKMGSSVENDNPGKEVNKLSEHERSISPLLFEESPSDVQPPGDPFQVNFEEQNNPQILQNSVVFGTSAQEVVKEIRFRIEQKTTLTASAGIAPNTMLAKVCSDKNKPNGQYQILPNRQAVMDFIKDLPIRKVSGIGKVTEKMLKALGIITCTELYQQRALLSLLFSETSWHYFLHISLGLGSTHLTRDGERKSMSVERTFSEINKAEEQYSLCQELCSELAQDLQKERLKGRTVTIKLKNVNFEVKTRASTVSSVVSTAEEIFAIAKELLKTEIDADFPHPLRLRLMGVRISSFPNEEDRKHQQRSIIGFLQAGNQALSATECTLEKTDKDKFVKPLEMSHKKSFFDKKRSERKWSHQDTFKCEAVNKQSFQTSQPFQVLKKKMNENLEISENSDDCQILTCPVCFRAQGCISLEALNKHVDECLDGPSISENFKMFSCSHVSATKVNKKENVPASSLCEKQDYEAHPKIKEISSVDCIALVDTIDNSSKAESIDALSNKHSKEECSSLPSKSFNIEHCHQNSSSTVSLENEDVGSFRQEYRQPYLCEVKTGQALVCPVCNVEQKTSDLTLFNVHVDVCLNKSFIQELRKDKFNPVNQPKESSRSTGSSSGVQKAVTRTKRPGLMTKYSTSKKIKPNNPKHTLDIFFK
How it was run: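 Kinetic fluorescence screen: compound preincubated 15 min RT with 10 nM enzyme; 50 nM substrate (final) initiates; reads at 0/10 min.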
% is set by controls: 0 for no effect and ±100 for the full control effect; potency is the fitted concentration of half-maximal effect.

Compound	activity, negative = inhibition	Potency
O=C1CC(c2ccco2)CC2=C1C(c1ccccc1)n1nc(C(F)(F)F)nc1N2 (stereo not given)	inactive: -8.5%	–
Cc1ccc(-c2csc(NC(=O)/C=C/c3ccco3)c2C(=O)O)cc1	–	active: 50.1 µM
COc1ccc(CNC(=O)Cn2c(=O)cc(C)c3c(C)nn(-c4cccc(Cl)c4C)c32)cc1	inactive: 23.2%	–
O=C(O)c1cc(O)c2c(c1)[C@H]([C@H]1c3cc(C(=O)O)cc(O)c3C(=O)c3c(O[C@@H]4O[C@H](CO)[C@@H](O)[C@H](O)[C@H]4O)cccc31)c1cccc(OC3O[C@H](CO)[C@@H](O)[C@H](O)[C@H]3O)c1C2=O (stereo not given in full)	–	active: 0.708 µM
COc1ccc([C@@H]2CC(=O)c3c(O)cc(O[C@@H]4OC(CO[C@@H]5OC(C)[C@H](O)[C@@H](O)[C@H]5O)[C@@H](O)[C@H](O)[C@H]4O)cc3O2)cc1O (stereo not given in full)	inactive: 2.26%	–
OCC1=C[C@@H](O)C2C=CO[C@@H](O[C@@H]3O[C@H](CO)[C@@H](O)[C@H](O)[C@H]3O)C12 (stereo not given in full)	inactive: 7.63%	–
CO/N=C(\C(=O)N[C@@H]1C(=O)N2C(C(=O)O)=C(COC(N)=O)CS[C@@H]12)c1ccco1	inactive: -4.73% [at 12 µM]	–
O=c1cc(-c2ccc(O)cc2)oc2cc(O)c([C@@H]3O[C@H](CO)[C@@H](O)[C@H](O)[C@H]3O)c(O)c12	–	inactive
Cc1onc(-c2c(Cl)cccc2Cl)c1C(=O)N[C@@H]1C(=O)N2[C@@H]1SC(C)(C)[C@@H]2C(=O)O	–	inactive
C=C1c2cccc(OC)c2O[C@H](C(=O)OCC)[C@@H]1CC(CC)CCCC (stereo not given in full)	inactive: -12.2%	–
Cc1cc(C(C)(C)C)c(O)c(C)c1CC1=NCCN1	–	inactive
CCOC(=O)[C@@H]1[C@H]2COc3ccccc3[C@@H]2N2C(=O)N(c3ccc(F)cc3)C(=O)[C@@]12C	inactive: 11.7%	–
COC(=O)CSc1ccc2nnc(CCNS(=O)(=O)c3ccccc3)n2n1	inactive: -4.56%	–
COc1cc2cc(Oc3ccc4ccc(=O)oc4c3)c(=O)oc2cc1O	inactive: -7.58%	–
COc1ccc([C@@H]2CC(=O)c3c(O)cc(O[C@@H]4O[C@H](CO[C@@H]5O[C@@H](C)[C@H](O)[C@@H](O)[C@H]5O)[C@@H](O)[C@H](O)[C@H]4O)cc3O2)cc1O	inactive: -27.2%	–
O=C(/C=C/c1ccc(Br)o1)OCc1nc2ccsc2c(=O)[nH]1	–	active: 10 µM
CSc1ccc2c(c1)C(N1CCN(C)CC1)Cc1ccccc1S2 (stereo not given)	–	inactive
COC(=O)[C@H]1[C@H]2C[C@H]3c4[nH]c5ccccc5c4CCN3C[C@@H]2CC[C@@H]1O	–	inactive
C[C@@]12CC[C@@H]3c4ccc(O)cc4CC[C@H]3[C@H]1CC[C@H]2O	inactive: 1.66% [at 12 µM]	–
CC[C@@]1([C@@H]2O[C@@H]([C@H]3O[C@@](O)(CO)[C@H](C)C[C@@H]3C)C[C@@H]2C)CC[C@@H]([C@]2(C)CCC3(C[C@H](O)[C@@H](C)[C@@H]([C@@H](C)[C@@H](OC)[C@H](C)C(=O)O)O3)O2)O1 (stereo not given in full)	inactive: 15.2% [at 60.1 µM]	–
CC(C)CCCC(C)C1CCC2C3CC=C4CC(O)CC[C@@]4(C)C3CC[C@@]12C (stereo not given in full)	inactive: -6.35% [at 60.1 µM]	–
CC(C)C[C@H](NC(=O)C1OC1C(=O)O)C(=O)NCCCCN=C(N)N (stereo not given in full)	inactive: -3.79% [at 60.1 µM]	–
CC(=O)c1c(O)c(C)c(O)c2c1OC1=CC(=O)C(C(C)=O)C(=O)[C@@]12C (stereo not given in full)	–	inactive
Cc1nnc(SCC2=C(C(=O)O)N3C(=O)C(NC(=O)COc4ccccc4)C3SC2)s1 (stereo not given)	–	active: 79.4 µM
C=C[C@@]1(C)CC(=O)[C@]2(O)[C@@]3(C)[C@@H](O)CCC(C)(C)[C@@H]3[C@H](O)[C@H](OC(C)=O)[C@@]2(C)O1	–	inactive

Compound	activity, negative = inhibition	Potency
Cc1cccc(-c2n[nH]c(=S)n2/N=C/C=C/c2ccco2)c1	–	active: 44.7 µM
CN(C)c1ccc(/C=C/c2ccc3c4ccccc4ccc3[n+]2-c2ccccc2)cc1	inactive: -6.22%	–
CCCCC(CC)COC(=O)C(C#N)=C(c1ccccc1)c1ccccc1 (stereo not given)	inactive: -22.9%	–
O=C1C=CC(=O)N1c1cccc2cccnc12	–	active: 89.1 µM
CCCCCCCCCCCCCCCCCCc1ccc(C(=O)/C=C\C(=O)O)cc1	–	active: 12.6 µM
O=C(Cc1coc2cc3c(cc12)CCC3)OCc1cc(=O)n2c(n1)sc1ccccc12	–	active: 89.1 µM
O=C1CN(/N=C/c2ccc([N+](=O)[O-])o2)C(=O)N1	–	inactive
NC(=NCCCCCCN=C(N)/N=C(\N)Nc1ccc(Cl)cc1)/N=C(\N)Nc1ccc(Cl)cc1	–	inactive
CC(C)c1ccc(Nc2nnc(SCC(=O)c3nnc(-c4ccccc4)o3)s2)cc1	–	active: 79.4 µM
COc1c(-c2ccccc2)oc2c(ccc3occc32)c1=O	inactive: -8.33%	–
CCOc1ccc(CCNC(=O)c2nc(-c3cccc(F)c3)n3c2CCCCC3)cc1OCC	–	active: 89.1 µM
CC(C)[C@H]1c2ccc(F)cc2CC[C@@]1(CCN(C)CCCc1nc2ccccc2[nH]1)OC(=O)C1CC1	inactive: -3.21%	–
O=c1c(O[C@@H]2O[C@H](CO)C(O)C2O)c(-c2ccc(O)c(O)c2)oc2cc(O)cc(O)c12 (stereo not given in full)	–	active: 25.1 µM
CC1(O)CCC(C(C)(C)O)CC1 (stereo not given)	–	inactive
COc1cc2oc(=O)cc(-c3cccc(-c4ccc(C(F)(F)F)cc4)c3)c2c(OC)c1OC	inactive: 2.78%	–
CC(C)c1c(O)ccc2c1CC[C@H]1C(C)(C)CCC[C@]21C	inactive: -6.09%	–
CCCC1O[C@@H]2C[C@H]3[C@@H]4CCC5=CC(=O)C=C[C@]5(C)[C@H]4[C@@H](O)C[C@]3(C)[C@]2(C(=O)CO)O1 (stereo not given in full)	–	inactive
CC(C(=O)O)c1cccc(C(=O)c2ccccc2)c1 (stereo not given)	–	inactive
O=C1CSC(=S)N1/N=C/c1ccc(O)c([N+](=O)[O-])c1	–	active: 28.2 µM
NC(=O)CSc1oc(-c2ccco2)nc1S(=O)(=O)c1ccc(Br)cc1	inactive: -19.7%	–
O=S(=O)(c1ccccc1)N(CC(F)(F)F)c1ccc(C(O)(C(F)(F)F)C(F)(F)F)cc1	inactive: -17.1% [at 60.1 µM]	–
NC(=O)C1CCCN1C(=O)C(Cc1cnc[nH]1)NC(=O)C1CCC(=O)N1 (stereo not given)	inactive: 11.6% [at 60.1 µM]	–
Cc1cccc(C(=O)Nc2cc3c(cc2N2CCCCC2)n(C)c(=O)c(=O)n3C)c1	inactive: 28.5%	–
Cc1nc(N=Nc2cc([N+](=O)[O-])ccc2Cl)c(COP(=O)(O)O)c(C=O)c1O	–	active: 26.7 µM
COc1ccc(C(=O)CC(=O)c2ccc(C(C)(C)C)cc2)cc1	inactive: 3.94%	–

Compound	activity, negative = inhibition	Potency
O=C(c1ccc2c(c1)OCO2)N1CCCCC1	–	inactive
COc1ccc(C(=O)c2ccccc2)c(O)c1	–	inactive
CC(C)NCC(O)c1ccc(O)c(O)c1 (stereo not given)	–	inactive
COc1cc(/C=N/N2C(=O)CSC2=S)ccc1O	–	active: 79.4 µM
NC[C@@H](O)c1ccc(O)c(O)c1	–	active: 3.16 µM and active: 11.9 µM
COc1c(O)cc2oc(-c3ccc(O)cc3)cc(=O)c2c1O	inactive: -10.9%	–
C/C(N)=C(/C#N)C(=O)CSc1nnc(SCc2ccc(Cl)cc2)s1	inactive: -7.99%	–
O=c1cc(-c2ccc(O)cc2)oc2cc(O[C@@H]3O[C@H](CO)[C@H](O)[C@H](O)[C@H]3O)cc(O)c12	inactive: 17.3%	–
CCCCCCCC/C=C\CCCCCCCC(=O)NCCO	–	inactive
Nc1nc2c(c(=O)[nH]1)N(C=O)[C@H](CNc1ccc(C(=O)N[C@@H](CCC(=O)O)C(=O)O)cc1)CN2	inactive: 1.5% [at 19.4 µM]	–
CCCc1cc(=O)oc2cc(C)c(CN3CCCC3)c(O)c12	–	active: 20 µM
CCC[C@@H]1O[C@@H]2C[C@@H]3[C@H]4CCC5=CC(=O)C=C[C@@]5(C)[C@H]4[C@H](O)C[C@@]3(C)[C@@]2(C(=O)CO)O1	inactive: -2.28% [at 19.4 µM]	–
COc1cccc2c1CCCC2CCCN1CCN(C2CCCCC2)CC1 (stereo not given)	–	inactive
CC[C@H](C)[C@H](NC(=O)[C@H](CCCNC(=N)N)NC(=O)[C@@H]1CCCN1C(=O)[C@H](Cc1ccccc1)NC(=O)[C@H](Cc1cnc[nH]1)NC(=O)[C@H](CCCNC(=N)N)NC(=O)[C@@H](NC(=O)[C@H](C)NC(=O)[C@H](CCC(=O)O)NC(=O)[C@H](CC(N)=O)NC(=O)[C@@H](N)CCCCN)C(C)C)C(=O)N[C@@H](Cc1c[nH]c2ccccc12)C(=O)N[C@@H](CC(C)C)C(=O)O	inactive: 18.1% [at 60.1 µM]	–
Cc1ccc(/C(=C/CN2CCCC2)c2ccccn2)cc1	inactive: -3.64% [at 12 µM] and inactive: -9.21% [at 19.4 µM]	–
Cc1c(C(=O)O)c(O)cc2c1C(=O)c1c(O)c([C@H]3O[C@H](CO)[C@@H](O)[C@H](O)[C@H]3O)c(O)c(O)c1C2=O	–	active: 20 µM and active: 8.44 µM and active: 3.16 µM
CC(=C/c1ccco1)/C=N/NC(=O)c1nnn(-c2nonc2N)c1CN(C)C	inactive: -1.14%	–
CCOC(=O)C1(CC)Oc2ccccc2C(c2ccc(OC)cc2)=C1C(=O)OC (stereo not given)	inactive: 3%	–
COc1ccc(-c2nc(NC(=O)C3CC(=O)N(c4ccc5c(c4)OCCO5)C3)sc2C)cc1 (stereo not given)	inactive: -11.1%	–
COC(=O)C1=C[C@@H](C(=O)OC)[C@@H]2C3=C(C(=O)[C@]2(C)NC(=O)c2ccccc2)[C@H](C)[C@@H]2C(=O)NC(=O)[C@@H]2[C@@H]3C1	inactive: 0%	–
CC(=O)OCC(CO)OC(C)=O (stereo not given) (tested in a mixture with another compound)	inactive: 15.2% [at 60.1 µM]	–
COc1cc(/C=N/NC(=O)c2ccccc2O)ccc1OCC(=O)Nc1ccccc1	–	active: 50.1 µM
COCc1nc2c([nH]1)c(=O)n(C)c(=O)n2CC(C)C	–	inactive
CCCCCC(O)c1cccc(OCc2ccc3ccccc3n2)c1 (stereo not given)	–	inactive
C/C=C\C[C@H](C)[C@H](O)[C@H]1C(=O)N[C@@H](CC)C(=O)N(C)CC(=O)N(C)[C@@H](CC(C)C)C(=O)N[C@@H](C(C)C)C(=O)N(C)[C@@H](CC(C)C)C(=O)N[C@@H](C)C(=O)N[C@@H](C)C(=O)N(C)[C@@H](CC(C)C)C(=O)N(C)[C@@H](CC(C)C)C(=O)N(C)[C@@H](C(C)C)C(=O)N1C	inactive: -12.2% [at 12 µM]	–
